Assay results taken from FireProtDB (doi:10.1021/bi00139a017).

Settings: Gallus gallus, 35 °C, GdnHCl, Fluorescence, Sodium acetate 0.1 M, reversible: yes

Substance: Lysozyme C wild type (sequence not shown)
- denaturant m value (pH 3.5): 2.59 kcal/mol/M
- denaturant midpoint (higher = more stable) (pH 3.5): 2.71 M
- unfolding free energy (pH 3.5): 7.02 kcal/mol
- denaturant m value (pH 4): 2.59 kcal/mol/M
- denaturant midpoint (higher = more stable) (pH 4): 3.26 M
- unfolding free energy (pH 4): 8.44 kcal/mol
- denaturant m value (pH 4.5): 2.59 kcal/mol/M
- denaturant midpoint (higher = more stable) (pH 4.5): 3.69 M
- unfolding free energy (pH 4.5): 9.56 kcal/mol
- denaturant m value (pH 5.5): 2.59 kcal/mol/M
- denaturant midpoint (higher = more stable) (pH 5.5): 3.61 M
- unfolding free energy (pH 5.5): 9.35 kcal/mol
